Data from paper PMC4336329 (PLoS ONE, 2015).
About 2,200 (0.71%) of roughly 310,000 compounds showed an effect of 50% or more. Effects have a minus sign here. The list shows a part of the results.

Molecular target: human ether-à-go-go-related gene (hERG) potassium channel (human, UniProt Q12809)
Experiment: primary screen, population patch clamp on CHO cells stably expressing hERG

Sequence of human ether-à-go-go-related gene (hERG) potassium channel (Q12809 whole entry, looked up): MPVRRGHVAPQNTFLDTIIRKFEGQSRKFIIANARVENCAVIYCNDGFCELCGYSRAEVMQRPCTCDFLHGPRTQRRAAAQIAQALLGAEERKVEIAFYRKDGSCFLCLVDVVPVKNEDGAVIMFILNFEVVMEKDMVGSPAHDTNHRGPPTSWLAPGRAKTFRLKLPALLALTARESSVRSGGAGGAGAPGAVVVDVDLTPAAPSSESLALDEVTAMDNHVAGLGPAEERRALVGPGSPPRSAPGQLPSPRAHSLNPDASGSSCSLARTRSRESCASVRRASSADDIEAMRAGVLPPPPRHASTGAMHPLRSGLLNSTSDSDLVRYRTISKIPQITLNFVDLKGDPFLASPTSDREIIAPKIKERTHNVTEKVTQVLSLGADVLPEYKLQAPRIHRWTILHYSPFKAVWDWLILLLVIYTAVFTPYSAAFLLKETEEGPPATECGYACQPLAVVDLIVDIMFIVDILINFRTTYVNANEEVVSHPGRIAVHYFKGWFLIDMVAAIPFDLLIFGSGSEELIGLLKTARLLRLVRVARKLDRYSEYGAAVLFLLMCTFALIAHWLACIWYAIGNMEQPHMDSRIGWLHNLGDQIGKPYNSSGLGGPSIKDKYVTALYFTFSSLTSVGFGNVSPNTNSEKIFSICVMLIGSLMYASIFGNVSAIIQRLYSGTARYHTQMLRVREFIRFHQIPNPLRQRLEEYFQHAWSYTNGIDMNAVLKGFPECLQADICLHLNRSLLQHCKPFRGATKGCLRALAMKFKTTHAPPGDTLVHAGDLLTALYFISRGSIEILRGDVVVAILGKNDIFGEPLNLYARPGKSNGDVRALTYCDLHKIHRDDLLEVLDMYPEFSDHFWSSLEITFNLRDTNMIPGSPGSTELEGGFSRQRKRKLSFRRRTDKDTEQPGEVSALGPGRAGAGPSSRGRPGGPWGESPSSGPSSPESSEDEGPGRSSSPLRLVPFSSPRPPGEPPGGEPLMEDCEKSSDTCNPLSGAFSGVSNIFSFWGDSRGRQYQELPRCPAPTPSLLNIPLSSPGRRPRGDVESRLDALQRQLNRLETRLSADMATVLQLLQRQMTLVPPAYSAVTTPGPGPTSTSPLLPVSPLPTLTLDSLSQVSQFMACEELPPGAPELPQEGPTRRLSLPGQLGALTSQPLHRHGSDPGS

| Structure (SMILES) | hERG current change (%, negative = inhibition) at 1uM [%] |
| --- | --- |
| CC1=CC(=C(C#N)c2nc3ccccc3s2)C=C(C)N1c1ccc(F)cc1 | 11.5 |
| CCOc1nc(Nc2ccccc2F)nc(OCC)n1 | 6.95 |
| COc1ccc(C(=O)CC(=O)C(=O)Nc2cc(Cl)c(OC)cc2OC)cc1 | 6.6 |
| Cc1onc(-c2ccccc2)c1C(=O)NC(=S)Nc1sc2c(c1C#N)CCCC2 | 3.61 |
| CCC(=O)Nc1ccc(C(=O)CN2C(=O)NC3(CCCCCC3)C2=O)cc1 | 11.2 |
| Cn1c(=O)c(C(=O)CN2CCN(Cc3ccc4c(c3)OCO4)CC2)c(N)n(Cc2ccccc2)c1=O | -40.4 |
| CC(=O)NC(CCCNC(=S)NC1CCCCC1)C(=O)O (centres unmarked) | 22.9 |
| Cc1cccc(N2CCN(S(=O)(=O)c3c(C)nc4scc(C)n4c3=O)CC2C)c1 (centres unmarked) | 3.87 |
| C=CCn1c(C)cc(C(=O)COC(=O)C2CC(=O)N(Cc3ccccc3)C2)c1C (centres unmarked) | 2.72 |
| Br.Cc1cc(C)cc(Nc2nc(-c3ccc(S(=O)(=O)N4CCCC4)cc3)cs2)c1 | 5.11 |
| CCOC(=O)N1CCN(C(=O)CCNS(=O)(=O)c2ccc(C)c(C)c2)CC1 | 11.2 |
| O=C(NCc1ccccc1)C(Cc1ccccc1)N1C(=O)C2C3CCC(C3)C2C1=O (centres unmarked) | -1.98 |
| Nc1cc(OC(=O)c2cccs2)nn1S(=O)(=O)c1ccccc1 | 15.7 |
| CC(C)Cc1cc(C(=O)NCCCN2CCOCC2)no1 | 4.89 |
| Cc1ccc(C(=O)OCC(=O)Nc2cc(S(=O)(=O)N3CCOCC3)ccc2C)cc1 | 9.8 |
| Cc1c(C(=O)Nn2cnnc2)oc2ccccc12 | 0.596 |
| CCN(CC)CCNC(=O)CCn1c(=S)[nH]c2cc3c(cc2c1=O)OCO3 | -0.984 |
| O=C(COC(=O)/C=C/c1ccc(F)cc1)NCc1cccs1 | 8.87 |
| CSCCCN1CCCC(CO)(Cc2ccc(F)cc2)C1 (centres unmarked) | 4.98 |
| C=CCSc1nc(N(CC)CC)c2sccc2n1 | 4.73 |
| O=C(c1cccc(S(=O)(=O)N2CCOCC2)c1)N(Cc1ccc(F)cc1)Cc1ccco1 | -55.2 |
| CCCCCn1c(=O)c(C(=O)Nc2c(C)n(C)n(-c3ccccc3)c2=O)c(O)c2ccccc21 | 7.48 |

| Structure (SMILES) | hERG current change (%, negative = inhibition) at 1uM [%] |
| --- | --- |
| CN(C)CCNC(=O)c1onc(CSc2nc3ccccc3[nH]2)c1C(=O)NCCN(C)C | -2.06 |
| CCCCC(=O)NC(=S)Nc1cc(C(=O)O)ccc1Cl | 18.8 |
| Cc1ccsc1CNC1CCCCC1 | 13 |
| O=C1CCCc2c1cc(C(=O)NCc1ccco1)c(=O)n2-c1ccc(Cl)cc1 | -19.8 |
| Cc1noc(C)c1COc1ccccc1C(=O)NC1CCC(C)CC1 (centres unmarked) | 10.3 |
| O=C(Nc1ccc2oc(-c3ccccc3)nc2c1)c1cccs1 | 7.22 |
| COc1ccc(C(=O)Cc2ccc3c(c2)OCO3)c(O)c1 | 1.76 |
| Cc1c(NC(=O)Nc2ccc(Cl)c(Cl)c2)c(=O)n(-c2ccccc2)n1C | 9.59 |
| COc1ccc(-c2cc3c(=O)n(CC(=O)NCc4cccnc4)nc(C)n3n2)cc1 | 19.3 |
| C[N+](C)(C)CCOC(=O)CCC(=O)OCC[N+](C)(C)C.O.[Cl-] | 8.28 |
| CCOc1ccc(/C=N/NC(=O)c2ccccc2C)cc1CN1CC2CC(C1)c1cccc(=O)n1C2 (centres unmarked) | -1.03 |
| CCCOc1ccc(/C(O)=C2/C(=O)C(=O)N(c3ccccn3)C2c2ccc(OC)cc2)cc1C (centres unmarked) | 14 |
| Cc1ccc(NC(=O)c2cnc(SCC(=O)c3ccccc3)n(C)c2=O)cc1 | 17 |
| O=C(O)c1ccccc1C(=O)N1N=C(c2ccccc2)CC1c1ccccc1O (centres unmarked) | 11.4 |
| Cc1cc2nccc(-c3cccnc3)n2n1 | 9.97 |
| CCC/C=N/NC(=O)c1cccc(Br)c1 | 10.3 |
| COc1ccc(Cl)cc1S(=O)(=O)Nc1ncn[nH]1 | 6.5 |
| O=S(=O)(NCCc1csc(-c2ccccc2)n1)c1cccnc1 | 12.4 |
| CC(=O)NNc1cccc(Cl)n1 | 4.36 |
| CC1(C)CC(=O)c2cc(OCC(=O)NCCCN3CCN(c4ccc(F)cc4)CC3)ccc2O1 | -60.3 |
| Cc1ccccc1NC(=O)Nc1ccccc1Br | 13 |
| CC1CCN(C(=O)c2ccc(NC(=O)c3cccs3)cc2)CC1 | 11.2 |
